From patent US7271245B2, “Methods and compositions for inhibition of metastasis” (The Scripps Research Institute, priority 2004, dated 2007)

Assays:
Type in all cases: cell-based
[1] = tested on: BMS human breast cancer cells; test: Haptotactic tumor cell migration toward fibrinogen (transwell); conditions: 2 μM scFv, 16 hrs at 37° C.
Method: (§1) FIGS. 3A, 3B, 3C, 3D, 3E. scFv Bc-12 and Bc-15 inhibit αvβ3 mediated adhesive breast cancer cell functions. (A) Adhesion of BMS human breast cancer cells to fibrinogen (Fg), vitronectin (VN) or type I collagen (Col I) in the absence or presence of 3 μM Bc-12, Bc-15 or their RGE mutants Mut-12, Mut-15, compared to 200 μM GRGDSPK peptide (SEQ ID NO: 11). Protein coating concentrations: 10 μg/ml (VN, Col I) or 20 μg/ml (Fg). Adhesion time: 30 min at 37° C. (B) Effect of scFvs on haptotactic BMS cell migration toward a fibrinogen substrate (16 hrs at 37° C. in transwell chambers with or without 2 μM Bc-12, Bc-15 or their RGE mutants Mut-12 or Mut-15, compared to 200 μM GRGDSPK peptide) (SEQ ID NO: 11). (C) Effect of scFvs on breast cancer cell arrest during blood flow. […] Tumor cell adhesion was quantified by image acquisition at 30 predefined positions during blood flow. Left: representative images of platelet signal (thrombi, green fluorescence) and tumor cell signal (red fluorescence) at identical x,y positions. […]
Cell adhesion and migration. Tumor cell adhesion under stationary conditions was analyzed as detailed earlier (19). […] Haptotactic tumor cell migration toward fibrinogen was analyzed in transwell chambers as detailed earlier. […]

[2] = tested on: BMS breast cancer cells; test: Tumor cell arrest during blood flow; conditions: 3 μM scFv, human blood, collagen I matrix, shear rate 50 s^−1
Method: as §1, with “C.” for “C. (B) Effect of scFvs on haptotactic BMS cell migration toward a fibrinogen substrate (16 hrs at 37° C. in transwell chambers with or without 2 μM Bc-12, Bc-15 or their RGE mutants Mut-12 or Mut-15, compared to 200 μM GRGDSPK peptide) (SEQ ID NO: 11). (C) Effect of scFvs on breast cancer cell arrest during blood flow.”
Tumor cell arrest during bloodflow. Breast cancer cell arrest during blood flow and interaction with platelets was measured as described. […] Adhesive events and cell interactions were visualized and recorded by fluorescence video microscopy and quantified by image acquisition at 30 predefined positions followed by computerized image analysis (MetaMorph, Universal Imaging). Tumor cells were stained with hydroethidine (red fluorescence) (20 μg/ml, 30 min, 37° C.), washed, and mixed with blood containing 10 μM mepacrine (green fluorescence). Blood cells, tumor cells, and platelets acquired green fluorescence and were visualized at 488/515 nm (excitation/emission). […]

[3] = tested on: human breast cancer cell lines, isolated from patient blood samples; test: Growth of breast cancer cell cultures in presence of scFv; conditions: 2 μM scFv, 4 days after seeding

Molecule | fibrinogen directed migration [1] | breast cancer cell arrest during blood flow [2] | growth of breast cancer cell lines [3]
Bc-15: patient derived human scFv antibody against activated αvβ3 with RGD motif in CDR-H3; cDNA ATCC PTA-6304 (protein) scFv: MAQVQLVQSGAEVKEPGSSVKVSCKASGGTFSSYAIYWVRQAPGQGLEWMGWINPDSGDTNSAQQFQGRVTMTRDTSISTAYMELSRLRSDDTAMYYCARPPRGDGPDYWGQGTLVTVSSGGGGGS[letters of about 100 residues not shown]RGLGGLVDYKDDDDK | inhibited BMS human breast cancer cell migration almost completely | efficiently inhibited | retarded
Mut-15: RGE containing mutant version of scFv Bc-15 (protein) MAQVQLVQSGAEVKEPGSSVKVSCKASGGTFSSYAIYWVRQAPGQGLEWMGWINPDSGDTNSAQQFQGRVTMTRDTSISTAYMELSRLRSDDTAMYYCARPPRGEGPDYWGQGTLVTVSSGGGGGS[letters of about 100 residues not shown]RGLGGLVDYKDDDDK | no effect | no effect | no effect
